Some of the results follow. The full chains were built here from the parent and the listed change. Inactive controls read about 0.05.
B1: TEV protease; numbered along this chain (parent)
chain: MGESLFKGPRDYNPISSSICHLTNESDGHTTSLYGIGFGPFIITNKHLFRRNNGTLVVQSLHGVFKVKDTTTLQQHLVDGRDMIIIRMPKDFPPFPQKLKFREPQREERICLVTTNFQTKSMSSMVSDTSCTFPSGDGIFWKHWIQTKDGQCGSPLVSTRDGFIVGIHSASNFTNTNNYFTSVPKNFMELLTNQEAQQWVSGWRLNADSVLWGGHKVFMVKPEEPFQPVKEATQL

Variants of: B1
Assay: raw area under fraction-flipped curve 0-4 h after induction (AUC4h, not background-subtracted), DNA-recorder readout of cleavage of the substrate (dimensionless); higher = more cleavage of the substrate by the protease variant
Conditions: temperature: 34 °C; time window: 0-4 h after rhamnose induction
Protocol: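 In vivo DNA recorder in E. coli TOP10(DE3) ΔrhaA at 34 °C. Each TEVp single-site mutant (parent TEVp 0) is paired with a single-site variant of the 7-mer TEVs (canonical ENLYFQ|S). The substrate sits between flexible linkers in a Bxb1-sfGFP-TEVs-SsrA fusion, so cleavage stabilises Bxb1 and speeds flipping of a recombination array, read by NGS. The value is the raw area under the fraction-flipped curve over 0-4 h after rhamnose induction (AUC4h), with ≥20 reads per time point. It is not background-subtracted; inactive controls average about 0.047.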
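Also: Bxb1 expression induced with 0.2% (w/v) L-rhamnose at OD600 near 0.5, cultures sampled hourly, flipped fraction per protease–substrate barcode pair counted by paired-end Illumina sequencing.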

Variant | area with substrate ENLYFQA | area with substrate ENLYFQC | area with substrate ENLYFQF | area with substrate ENLYFQG | area with substrate ENLYFQH | area with substrate ENLYFQI | area with substrate ENLYFQK | area with substrate ENLYFQL | area with substrate ENLYFQM | area with substrate ENLYFQN | area with substrate ENLYFQP | area with substrate ENLYFQQ | area with substrate ENLYFQR | area with substrate ENLYFQS | area with substrate ENLYFQV | area with substrate ENLYFQW | area with substrate ENLYFQY | area with substrate ENLYFQE | area with substrate ENLYFQT | area with substrate ENLYFQD
G54S | 0.0694 | 0.0769 | 0.0617 | 0.0872 | 0.0618 | 0.0698 | 0.0568 | 0.0576 | 0.0726 | 0.114 | 0.0645 | 0.0489 | 0.0586 | 0.0741 | 0.0524 | 0.0598 | 0.0725 | – | – | –
E107G | 0.0802 | 0.0866 | – | 0.102 | 0.0751 | 0.0567 | 0.0589 | – | 0.0873 | 0.0748 | – | 0.0581 | 0.0402 | 0.105 | 0.0551 | – | – | 0.0726 | 0.0722 | –
E108D | 0.0936 | 0.0908 | – | – | 0.0816 | 0.0599 | 0.0521 | – | – | 0.0943 | 0.0543 | 0.0802 | 0.0719 | 0.105 | – | 0.0552 | – | – | 0.0712 | –
K46W | 0.0558 | 0.058 | – | 0.0561 | 0.0557 | 0.0528 | 0.0545 | 0.0495 | 0.0574 | 0.0385 | 0.0556 | 0.0732 | 0.0677 | 0.0587 | 0.0562 | 0.0406 | 0.0717 | – | 0.063 | 0.0607
K46I | 0.0449 | 0.0693 | – | 0.0687 | 0.064 | 0.0567 | 0.0473 | 0.0603 | 0.0622 | 0.0574 | 0.0639 | – | 0.0616 | 0.0673 | 0.0494 | 0.0527 | 0.0481 | 0.0685 | 0.063 | 0.0581
K46V | 0.058 | – | – | 0.0729 | 0.0514 | 0.0459 | – | 0.0548 | 0.0107 | 0.0668 | 0.0539 | – | 0.0426 | 0.0751 | 0.0635 | 0.0493 | 0.0465 | – | 0.0542 | –
P89H | 0.069 | – | – | – | – | 0.0588 | – | 0.0491 | 0.0669 | 0.0686 | – | 0.0698 | 0.0584 | 0.0914 | – | 0.0505 | 0.0459 | – | 0.0627 | 0.0712
M83G | 0.0528 | 0.067 | – | – | – | – | 0.0645 | 0.0514 | 0.0695 | 0.0468 | 0.0474 | – | 0.0421 | 0.0565 | 0.0486 | 0.0535 | – | – | 0.0462 | –
E103H | 0.1 | 0.0964 | – | – | 0.0726 | – | 0.0561 | 0.0906 | 0.0881 | 0.0746 | 0.0627 | 0.0735 | – | 0.0892 | 0.0405 | 0.0673 | 0.0809 | – | 0.0677 | –
E103V | 0.0992 | 0.0884 | 0.0682 | 0.0982 | 0.0811 | 0.0834 | 0.0712 | 0.064 | 0.0821 | 0.0687 | – | – | 0.0631 | 0.0977 | 0.0604 | 0.0417 | – | – | 0.077 | 0.0315
I86D | 0.0313 | 0.0524 | – | 0.0327 | – | 0.0388 | – | 0.0176 | 0.0353 | – | – | – | 0.0433 | 0.0392 | – | 0.0497 | 0.0443 | – | – | –
I86W | 0.0584 | 0.0725 | 0.0475 | 0.0702 | 0.028 | 0.0501 | 0.072 | 0.0624 | 0.0621 | – | 0.0522 | – | 0.0569 | 0.0728 | 0.0498 | 0.0617 | 0.0637 | 0.0595 | 0.0591 | 0.0713
L73T | 0.0653 | 0.0739 | – | 0.0804 | 0.0552 | – | 0.0602 | 0.0809 | 0.0796 | 0.0651 | 0.0594 | 0.0614 | 0.0638 | 0.073 | 0.0478 | 0.0604 | – | – | 0.0633 | 0.0606
L73S | 0.0614 | 0.0701 | – | 0.0657 | – | – | 0.0584 | – | – | 0.0339 | 0.028 | – | 0.0542 | 0.0619 | – | – | 0.0523 | – | 0.0512 | 0.0617
S60R | 0.0976 | 0.105 | – | 0.0903 | 0.0979 | 0.0671 | – | 0.0632 | 0.0771 | 0.0907 | – | – | 0.0394 | 0.0944 | 0.0403 | 0.063 | – | 0.0658 | – | –
T71P | 0.107 | 0.104 | – | 0.101 | – | – | – | 0.0494 | 0.0885 | – | – | – | 0.0554 | 0.0885 | – | – | 0.0645 | – | – | –
L56E | 0.0469 | 0.0501 | – | 0.045 | 0.0346 | 0.0475 | 0.0301 | 0.056 | 0.0392 | 0.0373 | – | – | 0.0409 | 0.0504 | 0.0413 | 0.0409 | – | – | 0.05 | –
N52D | 0.0663 | – | 0.0612 | 0.0561 | 0.0684 | – | 0.0613 | 0.0621 | 0.0675 | 0.0574 | 0.0578 | – | 0.0414 | 0.0759 | 0.0683 | 0.0577 | 0.065 | – | 0.0575 | –
D82R | 0.0798 | 0.095 | – | 0.0616 | – | – | – | – | 0.0613 | – | 0.0692 | – | – | 0.0605 | – | – | – | – | – | –
R81M | 0.0832 | – | – | – | 0.0823 | 0.0521 | 0.059 | 0.0632 | 0.0891 | 0.0686 | 0.0529 | – | 0.0591 | 0.0871 | 0.0517 | 0.041 | 0.0632 | – | 0.0567 | –
V67C | 0.0804 | – | – | 0.0953 | 0.0585 | – | 0.0607 | 0.0652 | 0.111 | 0.0705 | 0.0617 | – | 0.0572 | 0.105 | – | – | – | – | 0.0093 | 0.0577
D79A | 0.082 | – | – | – | 0.0846 | – | – | 0.0589 | 0.0998 | 0.0593 | – | – | – | 0.0904 | – | 0.0577 | – | – | 0.0658 | 0.0769
D79H | 0.0749 | 0.0589 | – | – | 0.0698 | – | 0.0634 | 0.0623 | 0.091 | 0.0526 | 0.0625 | – | 0.0613 | 0.0933 | 0.0463 | – | 0.0924 | – | 0.0529 | 0.0679
R109E | 0.0917 | 0.0784 | 0.0877 | 0.0572 | 0.0889 | 0.0712 | 0.058 | 0.0631 | 0.0989 | – | 0.0759 | – | 0.056 | 0.0898 | – | 0.0481 | 0.0699 | – | – | 0.085
K98M | 0.105 | – | – | 0.111 | 0.0898 | – | – | 0.0707 | 0.0771 | 0.0543 | 0.0665 | – | 0.0597 | 0.106 | – | 0.07 | 0.106 | – | – | –
K98T | 0.101 | 0.11 | 0.0798 | 0.0926 | – | 0.0638 | – | 0.0634 | 0.0861 | 0.0978 | 0.0431 | 0.0785 | 0.0557 | 0.106 | – | 0.0693 | – | – | 0.0711 | 0.0716
